Assay results as given in PubChem BioAssay AID1347120 (National Center for Advancing Translational Sciences (NCATS), 2019).
Among all 390,000 compounds or so, about 930 (0.24%) were called active. Inconclusive results, whose numbers are uncertain, are shown with a selection of clear calls. Calls come from the whole dose curve; as a rule, active = well fitted activation curve with a large enough effect; inconclusive = small, poorly fitted or top-dose-only effect; inactive = no such curve, though single readings can be large or run the other way. A potency beside an inconclusive call is a rough fit, not a confirmed value.

Test: qHTS for Suppressors of FUS Proteinopathy: Primary screen using FUS-linked yeast assay; note: nearly all actives have a fitted effect of over 55% in size
Conditions: S. cerevisiae FUS-expressing, OD600, 24 h; Potency: growth rescue; series mostly up to 76.6 µM
Procedure, shortened: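 Toxicity suppression screen in FUS-yeast. Cells induced with 2% galactose, starting OD 0.005, treated 24hr at 30C with compounds at multiple final concentrations; growth by OD600.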
Potency is the fitted concentration of half-maximal effect; tags give direction and shape of the fitted curve.

Row | Structure (SMILES) | Potency
1 | NC(Cc1ccccc1)c1csc(NC(=O)Nc2ccccc2Oc2ccccc2)n1 (stereo not drawn) | inconclusive: 31.6 µM [activator, partial curve, poor fit]
2 | CCCN(c1ccc(C(C)C)cc1)S(=O)(=O)c1ccc2c(c1)CCN2C(=O)CC | inactive
3 | CC1C=CCC2C(=O)N(c3cccc(C(=O)Nc4ccc(Br)cc4)c3)C(=O)C12 (stereo not drawn) | inconclusive: 50.1 µM [activator, single point]
4 | Cc1cccc(C(=O)N[C@H]2CC[C@@]34CCCN3C(=O)CCC[C@H]4[C@H]2C)c1 | inactive
5 | C/C(=N\Nc1ccc(C(=O)O)cc1)c1ccc(-n2ccnc2)cc1 | inactive
6 | C/C(CC(=O)N1CCCC1)=N\NC(=O)c1cc2ccccc2cc1O | inconclusive: 31.6 µM [activator, partial curve, poor fit]
7 | CC(=O)Nc1ccc(/C=N/OCC(=O)Nc2ccc(C)cc2)cc1 | inactive
8 | Cc1nn(Cc2ccc(Cl)c(Cl)c2)c(C)c1NC(=O)c1cc(C2CC2)on1 | inconclusive: 28.2 µM [activator, partial curve]
9 | NC(=O)c1ccc(-c2nnn(CC(=O)Nc3cccc(S(=O)(=O)N4CCCC4)c3)n2)cc1 | inconclusive: 28.2 µM [activator, partial curve, poor fit]
10 | O=C(C1=C(O)C(=O)N(Cc2ccco2)C1c1cccnc1)c1cc2ccccc2o1 (stereo not drawn) | inconclusive: 31.6 µM [activator, partial curve, poor fit]
11 | Cc1ccc(NC(=O)CN2C(=O)CCc3cc(S(=O)(=O)N4CCOCC4)ccc32)cc1N(C)C | inactive
12 | O=C(Nc1cccc(C(=O)N2CCCC2)c1)C1CCC1 | inactive
13 | NC(=O)c1ccccc1NC(=O)C1CCCN(c2ncnc3onc(-c4ccc(F)cc4)c23)C1 (stereo not drawn) | inconclusive: 31.6 µM [activator, partial curve, poor fit]
14 | O=C(O)c1cscc1Cc1cccs1 | inconclusive: 8.91 µM [activator, partial curve]
15 | O=C(NC1CCCC1)c1ccc2c(c1)N(Cc1ccc(C(F)(F)F)cc1)C(=O)c1ccccc1S2 | inconclusive: 3.55 µM [activator, full curve]
16 | CSc1ccc(CN(C)C(=O)c2ccc(S(=O)(=O)Nc3c(C)n(C)n(-c4ccccc4)c3=O)cc2)cc1 | inconclusive: 12.6 µM [activator, partial curve]
17 | Cc1ccc(S(=O)(=O)N2C[C@H]3[C@H]4C(=O)N(C5CCCCC5)C(=O)[C@H]4CC(=O)[C@H]3[C@@H]2c2ccccc2Cl)cc1 | inconclusive: 25.1 µM [activator, partial curve, poor fit]
18 | COc1ccc(NC(=O)CN2C(=O)C(c3ccccc3)=NC23CCCCCC3)cc1 | inconclusive: 28.2 µM [activator, partial curve, poor fit]
19 | Cc1ccc(-c2cn(-c3cccc(Cl)c3)c(S(=O)(=O)CC(=O)Nc3ccccc3F)n2)cc1 | inconclusive: 50.1 µM [activator, single point]
20 | O=C(C1CCN(S(=O)(=O)c2cccc3nsnc23)CC1)N1CCc2ccccc2C1 | inconclusive: 31.6 µM [activator, single point]
21 | Cc1ccc(NC(=O)Cn2c(=O)n(Cc3ccco3)c(=O)c3ccccc32)c(C)c1 | inconclusive: 35.5 µM [activator, partial curve, poor fit]

Row | Structure (SMILES) | Potency
22 | COc1ccc(CCNC(=O)c2ccc(Cn3c(=O)c4ccccc4n(Cc4cccc(Cl)c4)c3=O)cc2)cc1OC | inconclusive: 25.1 µM [activator, single point]
23 | CCOc1cc(/C=C2\C(=N)N3N=C(S(=O)(=O)CC)SC3=NC2=O)ccc1OC(=O)c1ccco1 | inactive
24 | O=S(=O)(c1ccccc1)N(CC(F)(F)F)c1ccc(C(O)(C(F)(F)F)C(F)(F)F)cc1 | inactive
25 | CC(C)c1ccc(NS(=O)(=O)c2ccc3nc(-c4ccccc4)[nH]c3c2)cc1 | inactive
26 | Cc1ccc(C2(C)NC(=O)N(CC(=O)N3CCN(S(=O)(=O)c4ccccc4[N+](=O)[O-])CC3)C2=O)cc1 (stereo not drawn) | inconclusive: 50.1 µM [activator, single point]
27 | O=C(Nc1ccc(F)cc1)OCc1cn(Cc2cccc(F)c2)nn1 | inactive
28 | COc1ccc(C)cc1NC(=O)Cn1c(=O)n(Cc2nc(C)no2)c(=O)c2ccccc21 | inactive
29 | CCN1CCN(CCCNC(=O)c2ccc(/C=C3/Sc4ccccc4N(Cc4ccccc4F)C3=O)cc2)CC1 | inconclusive: 28.2 µM [activator, partial curve]
30 | CCOc1cc(C2C(C(=O)N3CCCCC3)=C(C)NC3=C2C(=O)CC(C)(C)C3)ccc1O (stereo not drawn) | inactive
31 | CCC(Cc1ccccc1)NC(=O)C1CCN(S(=O)(=O)c2ccc3c(c2)CC(C)N3C(C)=O)CC1 (stereo not drawn) | inconclusive: 5.62 µM [activator, full curve]
32 | CC(=O)Nc1ccc(N(CC(O)Cn2c3ccccc3c3ccccc32)S(=O)(=O)c2ccc(C)cc2)cc1 (stereo not drawn) | inconclusive: 25.1 µM [activator, partial curve, poor fit]
33 | COc1ccc(NC(=O)COC(=O)c2ccc(OCc3c(C)noc3C)cc2)cc1OC | inactive
34 | Cc1ccc(N(C)C(=O)c2cc(S(=O)(=O)N3CCc4ccccc43)cn2C)cc1 | inconclusive: 31.6 µM [activator, partial curve]
35 | CN(C)c1ccc(C2C=C(c3ccc(Cl)cc3OC(F)F)Nc3ncnn32)cc1 (stereo not drawn) | inconclusive: 35.5 µM [activator, partial curve, poor fit]
36 | CCCCCCC(=O)NNC(=O)c1c(O)c2ccccc2n(CC)c1=O | inconclusive: 50.1 µM [activator, single point]
37 | O=C(CN1C(=O)NC2(CCCc3ccccc32)C1=O)Nc1cc(F)ccc1F (stereo not drawn) | inconclusive: 50.1 µM [activator, single point]
38 | Cc1ccccc1OCCCCc1c(C)n[nH]c1C | inactive
39 | CC1(C(=O)Nc2cnc3ccccc3c2)CCN1C(=O)c1ccccc1CCc1ccccc1 (stereo not drawn) | inconclusive: 28.2 µM [activator, single point]
40 | O=C(Nc1nnc2n1CCS2)c1ccccc1C(F)(F)F | inactive
41 | Cc1c(C(=O)NCCSCc2ccc(F)cc2)cnn1-c1ccc(Cl)cc1 | inactive
42 | CCCSc1ccc([C@@H]2[C@H]3C(=O)N(CC)C(=O)[C@H]3[C@]3(C(=O)OC)CCCCN23)cc1 | inconclusive: 22.4 µM [activator, partial curve]

Row | Structure (SMILES) | Potency
43 | CCC(C)Sc1ccc(-c2nc3ccc(C)cn3c2NCc2ccccc2)cc1OC (stereo not drawn) | inconclusive: 31.6 µM [activator, single point]
44 | COc1ccc(Cn2c(=O)c3cccnc3n(CC(=O)Nc3c(C)cc(C)cc3C)c2=O)cc1 | inactive
45 | CSc1ccccc1C(=O)NC1CCCN(c2ccc(C(F)(F)F)cn2)C1 (stereo not drawn) | inactive
46 | Cc1c(C(=O)OC(C)C)sc(NC(=O)C2c3ccccc3Oc3ccccc32)c1C(=O)OC(C)C | inconclusive: 22.4 µM [activator, partial curve, poor fit]
47 | CCC(c1nnnn1Cc1cccs1)N1CCN(c2nc3ccccc3s2)CC1 (stereo not drawn) | inconclusive: 14.1 µM [activator, partial curve]
48 | COC(=O)[C@]1(Cc2ccccc2)N[C@H](CN(C)S(=O)(=O)c2ccc(C(F)(F)F)cc2)[C@@H]2C(=O)N(Cc3ccccc3)C(=O)[C@@H]21 | inconclusive: 31.6 µM [activator, partial curve, poor fit]
49 | CCCCCN(C(=O)CSc1n[nH]c(-c2ccc(C)cc2)n1)c1c(N)n(CCCC)c(=O)[nH]c1=O | inconclusive: 25.1 µM [activator, single point]
50 | CCc1ccc(NC(=O)c2ccc(F)c(S(=O)(=O)N3CCN(c4ccc(OC)cc4)CC3)c2)cc1 | inactive
51 | Cc1ccsc1CN(C(=O)c1ccc(OCC(C)C)cc1)C1CCS(=O)(=O)C1 (stereo not drawn) | inactive
52 | COc1cccc(N2CCN(C(=O)c3ccc(CS(=O)Cc4ccccc4Cl)o3)CC2)c1 (stereo not drawn) | inactive
53 | Cc1ccc(C2(C)NC(=O)N(CC(=O)N3CCN(S(=O)(=O)c4ccc(Cl)s4)CC3)C2=O)cc1 (stereo not drawn) | inconclusive: 50.1 µM [activator, single point]
54 | CCOc1ccccc1NC(=O)C1CCN(S(=O)(=O)c2cccs2)CC1 | inactive
55 | CCCCCCCCN1C(=O)N2Cc3cc(F)ccc3C2CS1(=O)=O (stereo not drawn) | inactive
56 | CCCS(=O)(=O)c1nc(S(=O)(=O)c2ccc(C)cc2)c(NCc2ccccc2Cl)s1 | inconclusive: 14.1 µM [activator, partial curve, poor fit]
57 | CCOc1ccccc1CNC(=O)c1ccc2nc(N3CCOCC3)sc2c1 | inconclusive: 25.1 µM [activator, single point]
58 | O=C(NCc1cccnc1)C1CCC(c2ccc(Cl)cc2)CC1 (stereo not drawn) | inactive
59 | O=C(NC1CCCc2ccccc21)c1ccc2c(c1)sc1nc(-c3ccccc3)cn12 (stereo not drawn) | inactive
60 | CCN1CCN(Cc2ccc(NC(=O)c3ccc(C)c(NC(=O)c4cc(-c5ccc(Br)cc5)n[nH]4)c3)cc2C(F)(F)F)CC1 | inconclusive: 50.1 µM [activator, single point]
61 | COc1ccc(C)cc1Nc1n[n+](-c2ccccc2)c(-c2ccc(N(C)C)cc2)s1 | inconclusive: 35.5 µM [activator, single point]
62 | COc1cccc(C(=O)NC2CCN(C(=O)N3c4ccccc4Sc4ccccc43)CC2)c1 | inconclusive: 31.6 µM [activator, single point]
63 | COc1ccc(-c2cc(C(=O)N(C3CCCCC3)C3CCCCC3)no2)cc1 | inactive
